In all, about 5,400 compounds went through this assay and about 190 (3.5%) showed an effect of 50% or more. The list shows a part of the results. Non-standard residues stand in square brackets, D forms with d. Residues, ends and D or L forms follow the SMILES beside them.

The results in this text go back to publication PMC13083723 (Patterns, 2026).

The subject of this assay is Vero-E6. In words: primary screen, phospholipidosis by LipidTOX staining; higher = more effect of the substance. As to conditions: 10 µM. In outline: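 Single-concentration screen at 10 μM, with DMSO 0.1 v/v % and amiodarone 10 μM as controls. Read-out is LipidTOX Red phospholipid staining, which tolerates aldehyde fixation, in Vero-E6 cells.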
As to `C[C@@H](c1nc(-c2ccc(C#N)cc2)cs1)[C@](O)(Cn1cncn1)c1cc(F)ccc1F`, the result_ITMP is -5.39%.

On to `Nc1nc(O)c2c(n1)NCC(CNc1ccc(C(=O)N[C@@H](CCC(=O)O)C(=O)O)cc1)N2` (stereo partly shown), for which the result_ITMP is reported as -1.43%.

For `CN1[C@@H]2CC[C@H]1C[C@@H](OC(c1ccccc1)c1ccccc1)C2`, the result_ITMP came to 35.6%.

As to `Cc1onc(-c2c(F)cccc2Cl)c1C(=O)N[C@@H]1C(=O)N2[C@@H]1SC(C)(C)[C@@H]2C(=O)[O-]`, the result_ITMP was -6.63%.

Turning to `O=C(CCBr)N1CC[N+]2(CC1)CC[N+]1(CCN(C(=O)CCBr)CC1)CC2`, the result_ITMP was 9.73%.

As for `C[C@H](N)[C@H](O)c1ccc(O)c(O)c1`, the result_ITMP is -2.54%.

Regarding `O=C1CN(/N=C/c2ccc(-c3ccc([N+](=O)[O-])cc3)o2)C(=O)[N-]1`, the result_ITMP is on record as -3.77%.

In the case of `CC1(c2ccccc2)OC(C(=O)O)=CC1=O` (stereo not shown), the result_ITMP is -2.07%.

Consider `Clc1ccc(C(Cn2ccnc2)OCc2ccc(Sc3ccccc3)cc2)c(Cl)c1` (stereo not shown), for which the result_ITMP is reported as 6.97%.

Regarding `CC[C@H](C)C(=O)O[C@H]1C[C@@H](C)C=C2C=C[C@H](C)[C@H](CC[C@@H]3C[C@@H](O)CC(=O)O3)[C@H]21`, the result_ITMP is on record as -4.83%.

With `FC(F)(F)C(F)(F)C(F)(F)N(C(F)(F)C(F)(F)C(F)(F)F)C(F)(F)C(F)(F)C(F)(F)F`, the result_ITMP is listed as -3.2%.

On to `O=c1c2ccccc2nc2n1CCCCC2`, for which the result_ITMP stood at 0.69%.

As for `N=C(N)NCCC[C@@H](NC(=O)[C@@H]1CCCN1C(=O)[C@@H]1CSSC[C@H](N)C(=O)N[C@@H](Cc2ccc(O)cc2)C(=O)N[C@@H](Cc2ccccc2)C(=O)N[C@@H](CCC(N)=O)C(=O)N[C@@H](CC(N)=O)C(=O)N1)C(=O)NCC(N)=O`, the result_ITMP was -1.55%.

As for `Cc1c(C)c2c(c(C)c1O)CCC(C)(C(=O)O)O2` (stereo not shown), the result_ITMP was -2.19%.

As for `O=C(Nc1ccccc1)N1CCC(Cc2cnc3ccccc3c2)CC1`, the result_ITMP is -3.15%.

As for `O=C(O)CCNc1cc(N2CCc3ccccc3CC2)nc(-c2cccnc2)n1`, the result_ITMP was found to be 0.42%.

Turning to `CCCCCCCC/C=C\CCCCCCCC(=O)NCCO`, the result_ITMP is -1.1%.

Consider `CC(C)OC(=O)CNC(=O)[C@H](CS)NC(=O)CC[C@H](N)C(=O)O`, for which the result_ITMP was -6.76%.

`C[C@@H](O)[C@H]1C(=O)N2C(C(=O)O)=C(S[C@@H]3CN[C@H](C(=O)N(C)C)C3)[C@H](C)[C@H]12`: the result_ITMP is reported as -1.56%.

`CC(=O)NCC(=O)N[C@H](CCC(=O)O)C(=O)O` (Ac-Gly-[dE]-OH): the result_ITMP is -1.79%.

Regarding `O=C(O)[C@H](O)[C@@H](O)[C@H](O[C@@H]1O[C@H](CO)[C@H](O)[C@H](O)[C@H]1O)[C@H](O)CO`, the result_ITMP is given as -2.78%.

For `COc1ccc(NC(=O)c2ccc(C(=N)N(C)C)cc2)c(C(=O)Nc2ccc(Cl)cn2)c1`, the result_ITMP is -7.3%.

As for `CCc1oc2ccccc2c1C(=O)c1ccc(OCC(=O)O)cc1`, the result_ITMP is recorded as -9.49%.

For the molecule `O[C@H]1CC[C@H](Nc2ncc3nc(Nc4c(F)cc(F)cc4F)n([C@H]4CCOC4)c3n2)CC1`, the result_ITMP turned out to be 0.08%.

Consider `Cc1cc(C)cc(OCC2CNC(=O)O2)c1` (stereo not shown), for which the result_ITMP is 2.1%.

For the molecule `Cc1ccc(-c2nc3ccc(C)cn3c2CC(=O)N(C)C)cc1`, the result_ITMP is listed as -1.72%.

Take `CCCCCCCCCCCCCCCC(=O)OC[C@H](COP(=O)([O-])OCC[N+](C)(C)C)OC(=O)CCCCCCCCCCCCCCC`: the result_ITMP is recorded as 2.02%.

Take `C[C@]12C=CC(=O)C=C1CC[C@H]1[C@@H]3C[C@@H](O)[C@](O)(C(=O)CO)[C@@]3(C)C[C@H](O)[C@@]12F`: the result_ITMP is -2.83%.

Regarding `O=C(O)/C=C/c1c[nH]cn1`, the result_ITMP is on record as -3.59%.

Consider `N#Cc1ccc(COC[C@H]2O[C@@H](n3c(NCc4ccc(Cl)c(Cl)c4)nc4c(N)ncnc43)[C@H](O)[C@@H]2O)cc1`, for which the result_ITMP came to 1.67%.

On to `CC1(C)O[C@@H]2C[C@H]3[C@@H]4CCC5=CC(=O)CC[C@]5(C)[C@@]4(F)[C@@H](O)C[C@]3(C)[C@]2(C(=O)CCl)O1`, for which the result_ITMP turned out to be 0.62%.

As for `CC(=O)NCCCS(=O)(=O)[O-]`, the result_ITMP came to 7.64%.

For the molecule `CCCC(=O)C1CCN(c2ncnc3c2CN(C(=O)c2ccc(-c4ccccc4)cc2)CC3)CC1`, the result_ITMP is reported as -1.76%.

As for `C=C1CCN([C@H](C)[C@](O)(Cn2cncn2)c2ccc(F)cc2F)CC1`, the result_ITMP is -1.52%.

In the case of `CN(C)CCN(C)CCc1ccc(Cl)c(Cl)c1`, the result_ITMP was 43.5%.

`CCN(CC)C(=O)/C(C#N)=C/c1cc(O)c(O)c([N+](=O)[O-])c1`: the result_ITMP was -9.58%.

As for `Nc1nc(N)nc(NC2CC2)n1`, the result_ITMP was 6.38%.

As for `C[C@@H]1O[C@@H](OC[C@H]2O[C@@H](Oc3c(-c4ccc(OCCO)c(OCCO)c4)oc4cc(OCCO)cc(O)c4c3=O)[C@H](O)[C@@H](O)[C@@H]2O)[C@H](O)[C@H](O)[C@H]1O`, the result_ITMP was -1.19%.

Turning to `COc1ccc2c(c1)c(CC(=O)N1CCOCC1)c(C)n2C(=O)c1ccc(Cl)cc1`, the result_ITMP was -7.89%.

As for `CC(C)(C)n1nc(-c2cccc3ccccc23)c2c(N)ncnc21`, the result_ITMP turned out to be 1.01%.

For the molecule `OC(c1cc(C(F)(F)F)nc2c(C(F)(F)F)cccc12)C1CCCCN1` (stereo not shown), the result_ITMP is on record as 50%.

In the case of `CNCCCC12CCC(c3ccccc31)c1ccccc12`, the result_ITMP is recorded as 107%.

For the molecule `CCc1c(O)cc(O)c(C(=O)c2ccc(OCCN3CCOCC3)c(OC)c2)c1CC(=O)N(CCOC)CCOC`, the result_ITMP was -2.15%.

Regarding `COc1ccc(CCN2CCN(CCCc3ccccc3)CC2)cc1OC`, the result_ITMP came to 12%.

`O=C1Cc2c([nH]c3ccc(Br)cc23)-c2ccccc2N1`: the result_ITMP is given as -5.18%.

For the molecule `Cc1coc2c1C(=O)C(=O)c1c-2ccc2c1CCCC2(C)C`, the result_ITMP is -0.72%.

With `NC(CC(F)C(=O)O)C(=O)O` (racemic), the result_ITMP is on record as -4.91%.

Regarding `N=C(N)Nc1nc(CSCCN/C=N/S(=O)(=O)c2ccc(Br)cc2)cs1`, the result_ITMP is given as 0.59%.

Consider `CCCCCCC(=O)OC1CC(C)(C)NC(C)(C)C1`, for which the result_ITMP is 0.44%.

On to `Oc1cc2c(cc1O)CN(C(=S)NCCc1ccc(Cl)cc1)CCC2`, for which the result_ITMP is -3.83%.

For the molecule `CCCCCC(=O)O[C@]1(C(C)=O)CC[C@H]2[C@@H]3CCC4=CC(=O)CC[C@]4(C)[C@H]3CC[C@@]21C`, the result_ITMP is reported as -1.89%.

For `Cc1c(C)c2c(c(C)c1OC(=O)CCC(=O)O)CC[C@@](C)(CCC[C@H](C)CCC[C@H](C)CCCC(C)C)O2`, the result_ITMP turned out to be 1.74%.
